± gives the standard deviation of the averaged measurements. Over roughly 33,000 sequences, “E-score (dimensionless, -0.5 to 0.5)” has its median near -0.046; the highest 2% begin near 0.36. The list shows a part of the results.
These sequences were tested on T1, SpTbr T-box DNA-binding domain (GST fusion) (assay: PBM E-score of 8-mer (E-score (dimensionless, -0.5 to 0.5)); Tbr is Tbrain of the sea star Patiria miniata (Pm) or the sea urchin Strongylocentrotus purpuratus (Sp); higher = stronger binding preference; most listed sequences are background and not binding sites). Conditions: the construct has about 5 more residues each side.
T1 sequence: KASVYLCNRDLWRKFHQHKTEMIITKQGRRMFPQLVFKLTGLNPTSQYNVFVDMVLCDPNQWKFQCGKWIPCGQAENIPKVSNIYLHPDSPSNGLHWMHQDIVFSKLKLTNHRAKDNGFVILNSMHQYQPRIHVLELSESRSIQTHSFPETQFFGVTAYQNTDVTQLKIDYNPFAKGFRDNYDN
Outline: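 Using the Universal PBM Analysis Suite, every ungapped 8-mer received an enrichment E-score averaged over duplicate arrays. Probe intensities came from double-stranded Universal Agilent oligonucleotide arrays incubated with 200 nM GST-fused Tbr T-box DNA-binding domain in PBS (pH 7.5). That protein was expressed in BL21 E. coli at 20 °C and purified by glutathione affinity chromatography.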

Row | Sequence | PBM E-score of 8-mer
1 | CAAACACA | 0.182 ± 0.011
2 | AGGTCGCC | 0.0223 ± 0.12
3 | AGAGTAGA | -0.229 ± 0.03
4 | CACGTTCC | 0.124 ± 0.065
5 | ACCGGTTC | -0.0766 ± 0.063
6 | CATCTAGC | -0.0506 ± 0.055
7 | ATGAAGCG | -0.0559 ± 0.013
8 | AAACTTAT | -0.203 ± 0.0048
9 | AGGCAAGA | -0.134 ± 0.02
10 | TGGGTCAA | -0.189 ± 0.023
11 | CTTTATTA | -0.232 ± 0.057
12 | CATCCGCA | -0.00962 ± 0.082
13 | CGACGACG | 0.177 ± 0.013
14 | CGAAAATA | 0.126 ± 0.0045
15 | GAGAGTTA | 0.0121 ± 0.052
16 | ATCTCTTC | -0.0734 ± 0.022
17 | ACTCGCGC | 0.298 ± 0.038
18 | AGATCAGC | 0.0416 ± 0.092
19 | CCATTACC | -0.184 ± 0.091
20 | CACGGCCG | 0.165 ± 0.057
21 | GATTTTGA | -0.0555 ± 0.0057
22 | AATTTATG | -0.0572 ± 0.025
23 | AGGACGAC | -0.21 ± 0.028
24 | CATACGCA | 0.0761 ± 0.044
25 | GTTGATGA | 0.0475 ± 0.034

Row | Sequence | PBM E-score of 8-mer
26 | TATATAAA | -0.113 ± 0.026
27 | ACCTCACC | 0.224 ± 0.017
28 | CATTCTCA | 0.232 ± 0.034
29 | ACTCATGA | -0.0749 ± 0.082
30 | CCAATGGG | -0.126 ± 0.033
31 | TATAATAA | -0.141 ± 0.015
32 | AGACCTTA | -0.113 ± 0.019
33 | AGATTACG | -0.0672 ± 0.067
34 | TTTCCAAA | -0.194 ± 0.025
35 | ATCTATCG | -0.0383 ± 0.0026
36 | ACGGAGCT | -0.0501 ± 0.075
37 | ATTTTCTG | -0.222 ± 0.082
38 | AAGCCCCA | -0.0812 ± 0.065
39 | ATAACTGC | 0.0244 ± 0.03
40 | AGCAAGTC | 0.0127 ± 0.025
41 | CGGACTGA | -0.212 ± 0.02
42 | GTAACACA | 0.341 ± 0.024
43 | AACAGTAG | 0.008 ± 0.013
44 | CGCCCCTA | -0.104 ± 0.031
45 | CAAGAGAA | -0.083 ± 0.044
46 | ACGACGTC | -0.0113 ± 0.0044
47 | CGTACTGA | -0.163 ± 0.049
48 | GGACTAAA | -0.159 ± 0.03
49 | CGATCGGC | 0.0733 ± 0.1
50 | AAAGTCGC | 0.158 ± 0.019

Row | Sequence | PBM E-score of 8-mer
51 | AATCAGAG | -0.264 ± 0.02
52 | ATGGGCAG | -0.0503 ± 0.058
53 | CCCGAAGA | -0.173 ± 0.0047
54 | CCAAACGA | 0.13 ± 0.072
55 | GCGAGAAC | 0.393 ± 0.0087
56 | TACGGCCA | -0.189 ± 0.0022
57 | GCATCCGA | -0.0905 ± 0.024
58 | AGTCGACC | -0.199 ± 0.057
59 | ACAGCACA | 0.029 ± 0.027
60 | GCCCCGCA | 0.0578 ± 0.054
61 | CGGCTTTA | 0.0387 ± 0.0081
62 | ACTTAGCT | -0.0966 ± 0.021
63 | ATCTGTAA | 0.0195 ± 0.0086
64 | AACTAACG | 0.158 ± 0.027
65 | ACCTGTCT | 0.104 ± 0.0037
66 | GCCTAGGA | -0.192 ± 0.041
67 | CAATTGAG | -0.2 ± 0.036
68 | CTGCTTGC | -0.0876 ± 0.043
69 | ACACCCCG | 0.35 ± 0.018
70 | GCTAAGTA | -0.246 ± 0.022
71 | CCTTTGCA | -0.0392 ± 0.0034
72 | AGCTGACA | 0.231 ± 0.025
73 | AGCGGCCT | 0.107 ± 0.026
74 | CCGTATTC | -0.0201 ± 0.057
75 | ACGCTCGA | -0.118 ± 0.0043

Row | Sequence | PBM E-score of 8-mer
76 | AGTTGTAG | -0.065 ± 0.011
77 | GCTGCGCA | 0.0486 ± 0.034
78 | ACAAGGGA | -0.0276 ± 0.021
79 | AGTAAGAG | -0.113 ± 0.0043
80 | CACACCGC | 0.332 ± 0.037
81 | AACATAGG | -0.0811 ± 0.042
82 | TAAACTGA | -0.106 ± 0.099
83 | GCGTCACA | 0.319 ± 0.0097
84 | ACGTCGGC | 0.00047 ± 0.061
85 | CCTCCAAA | -0.22 ± 0.039
86 | ACCGCACA | 0.109 ± 0.024
87 | ACCTATTC | 0.0131 ± 0.033
88 | AAAGGCTA | -0.261 ± 0.033
89 | GATTCTAA | -0.0979 ± 0.063
90 | GTCATTGA | -0.0674 ± 0.031
91 | AAATCGGA | -0.19 ± 0.051
92 | AAGTCCGG | -0.223 ± 0.034
93 | AATTAAAT | -0.214 ± 0.15
94 | CAGCCGAG | -0.102 ± 0.036
95 | CCATTTCC | -0.0935 ± 0.076
96 | GCGTTTTA | 0.0124 ± 0.084
97 | CACGATAC | 0.127 ± 0.019
98 | TCACGCCA | 0.403 ± 0.0053
99 | GTCCAAGA | -0.229 ± 0.019
100 | AATAATAA | -0.191 ± 0.01

Row | Sequence | PBM E-score of 8-mer
101 | AGACTCCA | -0.352 ± 0.027
102 | AAGTACCA | -0.207 ± 0.029
103 | TATAGGCA | -0.196 ± 0.006
104 | TAGTTGAA | -0.0612 ± 0.025
105 | CTCTCAAA | 0.0429 ± 0.0086
106 | AAGCTGGT | -0.00632 ± 0.14
107 | TGAAGCCA | -0.0352 ± 0.019
108 | ATAACAGC | 0.19 ± 0.016
109 | CCACGTTC | 0.0649 ± 0.032
110 | ATTGCTTG | 0.127 ± 0.0089
111 | GGTAAGGA | 0.0123 ± 0.027
112 | CGTCCACC | -0.1393 ± 0.0008
113 | AAAACAAT | -0.0902 ± 0.0024
114 | CATTGGGC | -0.191 ± 0.039
115 | ATCCTTCA | -0.118 ± 0.06
116 | GACTTCAC | 0.142 ± 0.021
117 | GCGAGCGC | 0.296 ± 0.024
118 | GCACTCAC | 0.268 ± 0.012
119 | GGCTTAAA | -0.2752 ± 0.0023
120 | AAAATCGT | 0.138 ± 0.016
121 | CAGAGCGC | -0.00751 ± 0.044
122 | AGATCCAT | -0.205 ± 0.039
123 | GTGCCAAC | 0.4114 ± 0.0035
124 | TAAACTTA | -0.237 ± 0.068
125 | ATGGGAGA | -0.0645 ± 0.14

Row | Sequence | PBM E-score of 8-mer
126 | CTGTTTCA | -0.132 ± 0.012
127 | GGAGAACC | 0.0265 ± 0.00056
128 | AGGCGCGG | 0.291 ± 0.017
129 | AGGGTCCC | -0.224 ± 0.073
130 | ATCCCTGA | -0.293 ± 0.0063
131 | GCGAAGCC | 0.11 ± 0.025
132 | CCGAAAAG | 0.0174 ± 0.0071
133 | CTGTCTCA | 0.0938 ± 0.061
134 | CAATATCC | -0.252 ± 0.045
135 | CCGGCTCC | -0.16 ± 0.029
136 | AGGGCCAC | -0.156 ± 0.0034
137 | AGTGCGGA | 0.257 ± 0.023
138 | GTTCGACA | 0.126 ± 0.014
139 | AGCTTTGG | -0.111 ± 0.051
140 | AAACAGAT | -0.136 ± 0.01
141 | ACGTAATG | -0.214 ± 0.021
142 | GAAACTTC | -0.168 ± 0.042
143 | ATCCGTCC | -0.137 ± 0.086
144 | CGGGTACC | -0.0785 ± 0.021
145 | ATTTCCAC | 0.0969 ± 0.035
146 | AGCTCTTG | -0.285 ± 0.025
147 | ATTAAAGG | -0.0602 ± 0.029
148 | AGTGCTGA | 0.0461 ± 0.029
149 | ACGGCGGC | 0.12 ± 0.0025
150 | CCCTTACC | 0.0283 ± 0.022

Row | Sequence | PBM E-score of 8-mer
151 | ACGAACCG | 0.192 ± 0.063
152 | AGCCTAAT | -0.166 ± 0.091
153 | AATATTAA | -0.0999 ± 0.0093
154 | ATATATGA | 0.0551 ± 0.0072
155 | AACAACGC | 0.164 ± 0.0066
156 | CGGTCCAG | -0.263 ± 0.054
157 | ACGCTAGG | 0.112 ± 0.0082
158 | CTTTCGTA | -0.103 ± 0.039
159 | GACGTACC | -0.238 ± 0.0047
160 | GCCAGGCA | -0.0123 ± 0.022
161 | CACCCTTA | 0.269 ± 0.032
162 | ACGTCAAA | 0.0165 ± 0.054
163 | GTATGATA | -0.0654 ± 0.05
164 | AAGCTTGG | -0.224 ± 0.018
165 | ACGCCATG | -0.0492 ± 0.049
166 | CGCTGGTA | -0.00191 ± 0.15
167 | AACCACCT | 0.0395 ± 0.04
168 | AGGAGGAA | -0.102 ± 0.02
169 | ACCCAAGT | 0.134 ± 0.054
170 | ATACTGGG | -0.276 ± 0.051
171 | AACTAGTC | 0.0498 ± 0.011
172 | AACGATCG | 0.163 ± 0.017

Source: the supplement of paper PMC4166925
